Assay results taken from PubChem BioAssay AID1768 (National Center for Advancing Translational Sciences (NCATS), 2009).
Values joined by “and” are separate entries in the source; they are usually repeats but may differ in a detail not shown here. Identical values can stand only once. In all, about 270,000 compounds went through this assay and about 620 (0.23%) were called active. This list was built around the results that the source calls inconclusive (neither active nor inactive); the mix of calls is not that of the screen. Calls come from the whole dose curve; as a rule, active = well fitted inhibition curve with a large enough effect in the polarisation, with a control signal flat (not every such curve was filed as active); inconclusive = small, poorly fitted or top-dose-only effect, or effect the other way, or a change in a side signal; inactive = no such curve, though single readings can be large or run the other way; the % refers to the polarisation. Where the call is inconclusive, the potency comes from a doubtful curve fit. A note “side channel” means that the fit belongs to a control or component signal, not to the main read-out.

biological target: Menin (Homo sapiens) (UniProt O00255); test: qHTS Assay for Inhibitors Targeting the Menin-MLL Interaction in MLL Related Leukemias: Competition With Texas Red Labeled MLL-derived Mutant Peptide; details: fluorescence polarization; FP activity change, negative = inhibition: at 61.6 µM (top of the series); for FP activity change, negative = inhibition: % of control where 0% means no effect
Potency is the fitted concentration of half-maximal effect; tags give direction and shape of the fitted curve or compound fluorescence and quenching.

UniProt O00255, sequence (O00255 whole entry, looked up): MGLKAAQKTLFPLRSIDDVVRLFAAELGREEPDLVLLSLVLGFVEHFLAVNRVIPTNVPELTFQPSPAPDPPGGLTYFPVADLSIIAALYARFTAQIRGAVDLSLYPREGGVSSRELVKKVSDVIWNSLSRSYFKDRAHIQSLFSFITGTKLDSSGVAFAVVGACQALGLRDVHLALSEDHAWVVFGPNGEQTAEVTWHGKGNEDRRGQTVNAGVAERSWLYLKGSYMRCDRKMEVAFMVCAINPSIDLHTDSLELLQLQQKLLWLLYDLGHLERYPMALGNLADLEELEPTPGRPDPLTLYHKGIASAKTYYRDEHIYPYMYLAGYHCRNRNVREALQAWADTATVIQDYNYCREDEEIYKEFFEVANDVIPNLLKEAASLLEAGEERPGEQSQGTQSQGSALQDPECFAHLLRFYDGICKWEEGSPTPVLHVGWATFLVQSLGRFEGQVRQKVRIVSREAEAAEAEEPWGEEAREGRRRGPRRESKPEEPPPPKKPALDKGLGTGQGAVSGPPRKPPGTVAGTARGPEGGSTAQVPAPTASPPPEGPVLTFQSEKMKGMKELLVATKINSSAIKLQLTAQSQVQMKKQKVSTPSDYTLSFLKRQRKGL

FP activity change, negative = inhibition, inactive:
CCCCn1c(C)cc2c(c1=O)C1O[C@](CCCC)(Cc3cc(C#N)ccc31)O2 -2.66% [at 11.7 µM]

Potency, active:
COCCOC(=O)c1sc(=S)n(CCOC)c1N 28.2 µM, Nc1nonc1-c1nc2ccccc2n1CC(=O)N/N=C\c1ccc(-c2ccc(Cl)cc2)o1 10 µM

Potency, inactive:
O=C1C2C3C=CC(C3=C(c3ccccc3)c3ccccc3)C2C(=O)N1CCO (configuration not stated), Cc1cc(CC(=O)O)c(C)n1-c1ccc(Cl)cc1, CC(C)Cc1nnc(NC(=O)CCS(=O)(=O)c2ccc(Cl)cc2)s1, CCOC(=O)CC(NS(=O)(=O)c1ccc2[nH]c(=O)sc2c1)c1ccc(C)cc1 (configuration not stated), COC(=O)C1CC1[C@H](NC(=O)c1cccnc1)c1ccccc1 (some centres not stated), CC(C)N(Cc1nc(-c2ccccc2)no1)C(=O)c1ccc(Br)o1, c1cncc(-c2nnc(C3CCCCC3)o2)c1

Potency, inconclusive:
Cc1cc(C)cc(OCC(=O)N/N=C/c2ccc([N+](=O)[O-])o2)c1 28.2 µM [quencher, side channel, single point], CCCN(CC(=O)Nc1ccccc1OC)C(C)C(=O)NC(C)CCc1ccccc1 (configuration not stated) 17.8 µM [inhibitor, partial curve], COc1ccc(-c2cc(=O)c3c(OC)c(OC)c(OC)c(OC)c3o2)cc1OC 7.94 µM [inhibitor, full curve, poor fit] and 28.2 µM [inhibitor, partial curve], N#Cc1ccc(NC(=O)Nc2ccc(Oc3ccc(NC(=O)Nc4ccc(C#N)cc4)cc3)cc2)cc1 1.12 µM [quencher, side channel, full curve], COc1cc2c(C(=O)N3CCOCC3)c(CSc3ccccc3)n(C)c2cc1Br 2.82 µM [fluorescent, side channel, full curve, poor fit], Cn1ncc([N+](=O)[O-])c1C(=O)Nc1ccc(-c2nc3ccccc3o2)cc1 28.2 µM [quencher, side channel, partial curve], COc1ccc(/C=N/NC(=O)c2cc3cc(OC)c(OC)cc3[nH]2)cc1 20 µM [quencher, side channel, partial curve], Nc1nonc1-n1nnc(C(=O)N/N=C/c2ccccc2)c1CN1CCc2ccccc21 14.1 µM [quencher, side channel, partial curve], O=C(CCCN1C(=O)/C(=C/c2ccco2)SC1=S)Nc1ccccc1 35.5 µM [quencher, side channel, single point], O=C(CC1Nc2ccccc2NC1=O)Nc1cc(Cl)cc(Cl)c1 (configuration not stated) 12.6 µM [quencher, side channel, partial curve], CC[C@@H]1C(c2cccc(C)c2)=NN(c2ccccc2)[C@H]1C(=O)N1CCOC1=O 4.47 µM [quencher, side channel, full curve], CSc1ccc(CNc2cccc3ccccc23)cc1 17.8 µM [quencher, side channel, partial curve], CCOCCCNC(=O)c1ccc2c(c1)ncn2-c1ccc(CC)cc1 15.8 µM [fluorescent, side channel, partial curve], Cc1ccc(C2C3=C(CC(C)(C)CC3=O)NC3=C2C(=O)c2ccccc23)cc1 (configuration not stated) 8.91 µM [quencher, side channel, partial curve], CCn1c(COc2ccccc2)nnc1SCC(=O)Nc1ccc(N2CCOCC2)cc1 14.1 µM [inhibitor, single point], CCCCCCOC(=O)Nc1ccc(S(=O)(=O)Nc2cccc([N+](=O)[O-])c2)cc1 28.2 µM [quencher, side channel, partial curve], O=c1oc(-c2ccccc2)nc2sc3c(c12)CCC3 25.1 µM [quencher, side channel, partial curve], S=C(NCc1ccc(Cl)cc1Cl)NC1CCCCC1 31.6 µM [quencher, side channel, single point], COc1ccc2nc(N=NC3=C(O)CC(C)(C)CC3=O)sc2c1 20 µM [quencher, side channel, single point], Cc1ccc(CNC(=O)Cn2cnc3cc([N+](=O)[O-])ccc3c2=O)cc1 22.4 µM [quencher, side channel, partial curve], O=C(Nc1nnc(S(=O)(=O)N2CCCCCC2)s1)c1cccc(Br)c1 8.91 µM [quencher, side channel, full curve], CSCC[C@H](NC(=O)c1ccc(Cl)c(S(=O)(=O)N2CCCC2)c1)c1nc2ccccc2[nH]1 14.1 µM [inhibitor, partial curve], Cc1ccc(-c2cn(S(=O)(=O)c3ccc(C)cc3)nc2N)cc1 28.2 µM [quencher, side channel, partial curve], COc1ccc(CNC(=O)COC(=O)/C=C/c2cccc(Br)c2)cc1OC 11.2 µM [fluorescent, side channel, partial curve], O=C(CC1CC2CCC1C2)NC1CCCCCCC1 (configuration not stated) 3.55 µM [inhibitor, full curve], CNc1ccc(/C=C(\C#N)C(=O)Nc2ccccn2)cc1[N+](=O)[O-] 39.8 µM [quencher, single point], CCSCc1nnc(SCC(=O)Nc2nc(C)cs2)n1C 39.8 µM [fluorescent, side channel, single point], c1ccc(CCN(Cc2ccccc2)C2CCN(C3CCCC3)CC2)cc1 39.8 µM [inhibitor, single point], O=C(CSc1nc2ccccc2c(=O)n1CCCN1CCOCC1)NC12CC3CC(CC(C3)C1)C2 1.78 µM [inhibitor, full curve, poor fit], O=C(CSc1nnnn1-c1cccnc1)Nc1ccc(OCc2ccccc2)cc1 35.5 µM [fluorescent, side channel, single point], O=C(CN1CCOCC1)Nc1c2c(nc3ccccc13)N(Cc1ccccc1)CC2 22.4 µM [inhibitor, single point], O=C(N[C@@H](Cc1ccc(Br)cc1)C(=O)O)OCC1c2ccccc2-c2ccccc21 31.6 µM [quencher, side channel, single point], O=C(COc1ccccc1C(=O)N/N=C\c1ccc(O)c(O)c1)N/N=C/c1ccc(O)c(O)c1 17.8 µM [quencher, side channel, partial curve], O=C(CCC(=O)c1cccs1)Nc1ccc(F)c(F)c1F 14.1 µM [quencher, side channel, partial curve], O=C(Nc1ccc(Br)cc1)c1cccc(OC(=S)N2CCOCC2)c1 25.1 µM [quencher, side channel, single point], Cc1[nH]n(C(N)=S)c(=O)c1N=Nc1ccc(S(=O)(=O)N2CCCCCC2)cc1 10 µM [quencher, side channel, partial curve], CCCCn1[nH]c(-c2ccccc2)cc1=O 14.1 µM [quencher, side channel, partial curve], CCc1nc2ccccc2c(=O)n1NC(=O)c1c(O)c2ccccc2n(CC)c1=O 31.6 µM [quencher, side channel, single point], CC(C)C(=O)Nc1ccc(NC(=O)c2cccc3c(Br)cccc23)cc1 28.2 µM [fluorescent, side channel, partial curve], CCCOc1ccc(-c2cc(C(F)(F)F)c(C#N)c(SCC(=O)O)n2)cc1 20 µM [quencher, side channel, partial curve], Cn1cc(/C=N/NC(=O)c2ccccc2O)c2ccccc21 25.1 µM [quencher, side channel, partial curve], Cc1nc(N2CCC(C)CC2)c2c(C)c(C(=O)Nc3ccccc3C(F)(F)F)sc2n1 15.8 µM [inhibitor, partial curve], Cc1ccc(C)c(N2CCN(C(=O)c3cc4sccc4n3C)CC2)c1 3.16 µM [inhibitor, partial curve], Cc1sc2ncnc(N3CCN(Cc4ccccc4)CC3)c2c1-c1ccc(F)cc1 8.91 µM [fluorescent, side channel, full curve, poor fit], CCOC(=O)c1c(C)[nH]c(C)c1S(=O)(=O)N1CCN(c2ccc([N+](=O)[O-])cc2)CC1 14.1 µM [quencher, partial curve], CC(=O)c1cccc(Nc2nc(-c3ccccc3)cs2)c1 12.6 µM [quencher, side channel, partial curve], CCCCN(C)CCN1C(=O)C2C(C(=O)Nc3cccc(OC)c3)C3C=CC2(O3)C1C(=O)NC1CCCCC1C (configuration not stated) 25.1 µM [inhibitor, single point]
